# Several values for one entry are separate records, joined by “and”; a condition that tells them apart may be missing. Identical values can stand only once. This list was built around the results that the source calls inconclusive (neither active nor inactive); the mix of calls is not that of the screen. For some of these results: A potency beside an inconclusive call is a rough fit, not a confirmed value. Activity calls are given as the source filed them. Unless noted, the call rests on the fitted dose curve; in most records, active means well fitted curve in the direction sought with a large enough effect; inconclusive means small, poorly fitted or top-dose-only effect, or another doubt; inactive means no such curve, though single readings can be large; an effect the other way counts as inactive or inconclusive.
# Tests used:
# [1] = P-glycoprotein substrates identified in KB-3-1 adenocarcinoma cell line, qHTS therapeutic library screen (AID 1346986); conditions: KB-3-1 parental cells viability, CellTiter-Glo, 72 h; series mostly up to 44.5 µM;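 further: potency is for cytotoxicity meaning loss of cell viability; nearly all actives have a fitted effect of over 60% in size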
# How it was run: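 Cells seeded 500/well in DMEM/10% FCS; compounds pinned in dose-response; 72 h incubation; CellTiter-Glo added, 5 min, luminescence. KB-8-5-11 run ±tariquidar to test reversal of P-gp resistance.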
# [2] = test system: Zika virus NS2B-NS3 protease (unlinked complex); assay: Primary screen GU Rhodamine qHTS for Zika virus inhibitors: Unlinked NS2B-NS3 protease assay (AID 1347159); further: nearly all actives have a fitted effect of over 60% in size
# How it was run: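 Percent inhibition derives from the 15-min fluorescence change (ex 480, em 540 nm), normalized to no-enzyme and no-inhibitor wells. Reactions contained 25 nM NS2B-NS3 complex and 1.5 microM substrate in 10 mM Tris-HCl pH 8.0.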
# [3] = Identifying Small Molecule Inhibitors of Pancreatic Cancer Stem Cells (SN12C, Adherent) (AID 1259358);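 further: cell survival measured after 48 h of compound exposure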
# How it was run: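 Adherent (2D) versus sphere (3D) formats; spheres generated 14 d in SCM beforehand. Compound transferred by pin tool after 4 h, 48 h incubation, CellTiter-Glo endpoint.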
# [4] = molecular target: Cytochrome P450 2D6 (Homo sapiens) (UniProt P10635); assay: Cytochrome P450 family 2 subfamily D member 6 (CYP2D6) small molecule antagonists: luciferase biochemical (cell-free) qHTS assay (AID 1645840; active means well fitted curve in the direction sought with a large enough effect in the repeat runs; inconclusive means weak or mixed curves; inactive means no such curve, though single readings can be large; an effect the other way counts as inactive or inconclusive; further: nearly all actives have a fitted effect of over 55% in size)
# Chain of UniProt P10635 (P10635 whole entry, looked up): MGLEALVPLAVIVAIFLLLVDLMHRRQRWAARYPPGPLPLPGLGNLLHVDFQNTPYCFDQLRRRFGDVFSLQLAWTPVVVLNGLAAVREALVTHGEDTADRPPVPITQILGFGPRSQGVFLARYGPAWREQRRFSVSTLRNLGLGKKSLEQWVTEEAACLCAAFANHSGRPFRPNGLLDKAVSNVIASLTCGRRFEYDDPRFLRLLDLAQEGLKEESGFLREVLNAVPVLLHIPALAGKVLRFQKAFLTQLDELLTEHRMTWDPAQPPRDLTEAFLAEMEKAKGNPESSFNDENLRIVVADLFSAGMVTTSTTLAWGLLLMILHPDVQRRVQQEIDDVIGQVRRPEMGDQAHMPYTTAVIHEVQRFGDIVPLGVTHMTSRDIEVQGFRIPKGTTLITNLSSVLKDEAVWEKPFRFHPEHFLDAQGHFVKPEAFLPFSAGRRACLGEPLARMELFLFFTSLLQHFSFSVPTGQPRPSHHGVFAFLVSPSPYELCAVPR
# How it was run: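 P450-Glo luminescent screen: recombinant CYP2D6 enzyme–proluciferin substrate mix preincubated with compound 10 min at room temperature, then NADPH regeneration added for 1 h at room temperature. Detection reagent added for 20 min; luciferin light read as relative luminescence units.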
# [5] = molecular target: Cytochrome P450 2C9 (Homo sapiens) (UniProt P11712); assay: Cytochrome P450 family 2 subfamily C member 9 (CYP2C9) small molecule antagonists: luciferase biochemical (cell-free) qHTS assay (AID 1645842; active means well fitted curve in the direction sought with a large enough effect in the repeat runs; inconclusive means weak or mixed curves; inactive means no such curve, though single readings can be large; an effect the other way counts as inactive or inconclusive; further: nearly all actives have a fitted effect of over 55% in size)
# Chain of UniProt P11712 (P11712 whole entry, looked up): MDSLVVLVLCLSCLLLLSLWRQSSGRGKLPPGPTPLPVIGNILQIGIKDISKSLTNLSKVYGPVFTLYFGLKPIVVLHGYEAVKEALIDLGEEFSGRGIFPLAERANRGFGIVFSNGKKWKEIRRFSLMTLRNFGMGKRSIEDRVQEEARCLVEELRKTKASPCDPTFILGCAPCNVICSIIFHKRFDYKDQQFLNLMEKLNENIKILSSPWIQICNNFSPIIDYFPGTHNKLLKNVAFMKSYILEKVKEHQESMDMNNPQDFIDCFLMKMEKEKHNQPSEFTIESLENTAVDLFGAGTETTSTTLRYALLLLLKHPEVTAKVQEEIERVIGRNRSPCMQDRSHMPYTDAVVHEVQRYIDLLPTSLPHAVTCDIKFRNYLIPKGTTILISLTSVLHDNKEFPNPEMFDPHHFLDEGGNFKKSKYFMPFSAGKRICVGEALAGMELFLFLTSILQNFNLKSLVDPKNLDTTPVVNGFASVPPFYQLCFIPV
# How it was run: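 Luminescence, after 20 min with luciferin detection reagent, reflected CYP2C9 turnover during a 1 h NADPH-driven reaction at 37C. Enzyme-substrate mix contained 0.4% bovine serum albumin and was preincubated with compound 10 min at room temperature.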
# [6] = Primary redox qHTS assay for identification of artifact compounds. (AID 1845223)
# How it was run: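 Amplex Red (25 uM) and HRP (250 mU/mL) in HBSS, with compounds for 15 min, then 250 uM DTT for 30 min, room temperature, dark. Fluorescence 525/598 nm read; normalized to DMSO and 10 uM DA3003; Hill fit.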
# [7] = Quantitative High-Throughput drug screen in 47 multiple myeloma cell lines against the NCATS MIPE library collection: ARD_JJKsccE7 cell viability assay (AID 1918929)
# How it was run: (§1)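 Relative luminescence from CellTiter-Glo served as the viability signal, referenced to DMSO-treated (100%) and cell-free medium (0%) controls. Treatment lasted 48 hours at 37C with 500 cells per well.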
# [8] = qHTS of pediatric cancer cell lines to identify multiple opportunities for drug repurposing: Confirmatory screen for BT-37 cells (AID 1347117);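 further: viability measured after 48 h of compound exposure; nearly all actives have a fitted effect of over 55% in size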
# How it was run: (§2)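 Cells (500-1,000/well) rested 5 h, then received compounds for 48 h; metabolically active cells were measured by CellTiter-Glo luminescence. Final concentrations spanned up to 46 µM (MIPE, 11-point) or 0.59 nM-46 µM (NPC, 8-point) in primary screens, 11-point in follow-ups.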
# [9] = qHTS Assay for Identification of Small Molecule Agonists for NFkB Signaling Pathway. (AID 624478)
# How it was run: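 NFkB-bla ME-180 cells carry a beta-lactamase reporter. They received compound plus TNF alpha at 10 pM final (its EC50) for 5 h at 37 C. Reporter activity was read as 460/530 nm emission ratio after 2 h LiveBLAzer substrate loading.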
# [10] = Quantitative High-Throughput drug screen in 47 multiple myeloma cell lines against the NCATS MIPE library collection: KMS26_JCRB cell viability assay (AID 1918975); conditions: KMS26 myeloma cells viability, CellTiter-Glo ATP, 48 h; series mostly up to 45.8 µM; further: nearly all actives have a fitted effect of over 45% in size
# How it was run: as §1
# [11] = qHTS of pediatric cancer cell lines to identify multiple opportunities for drug repurposing: Confirmatory screen for Rh41 cells (AID 1347123); further: nearly all actives have a fitted effect of over 60% in size
# How it was run: as §2
# astro = assay: Drug repurposing screens with cells derived from glioblastoma tumor samples (AID 1345199); conditions: viability, ATP luminescence, 48 h; series mostly up to 45.9 µM; further: nearly all actives have a fitted effect of over 40% in size
# How it was run: (§3)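 Four patient lines of CD133+ GBM neurospheres were screened at several concentrations; hits were retested in those lines plus three slower-growing GBM lines, using 48-hour treatment and ATP-based viability.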
# [12] = molecular target: Ubiquitin carboxyl-terminal hydrolase 1 (Homo sapiens) (UniProt O94782); assay: Inhibitors of USP1/UAF1: Pilot qHTS (AID 504865);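 further: rhodamine fluorescence freed from ubiquitin-rhodamine substrate followed over time; nearly all actives have a fitted effect of over 35% in size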
# Chain of UniProt O94782 (O94782 whole entry, looked up): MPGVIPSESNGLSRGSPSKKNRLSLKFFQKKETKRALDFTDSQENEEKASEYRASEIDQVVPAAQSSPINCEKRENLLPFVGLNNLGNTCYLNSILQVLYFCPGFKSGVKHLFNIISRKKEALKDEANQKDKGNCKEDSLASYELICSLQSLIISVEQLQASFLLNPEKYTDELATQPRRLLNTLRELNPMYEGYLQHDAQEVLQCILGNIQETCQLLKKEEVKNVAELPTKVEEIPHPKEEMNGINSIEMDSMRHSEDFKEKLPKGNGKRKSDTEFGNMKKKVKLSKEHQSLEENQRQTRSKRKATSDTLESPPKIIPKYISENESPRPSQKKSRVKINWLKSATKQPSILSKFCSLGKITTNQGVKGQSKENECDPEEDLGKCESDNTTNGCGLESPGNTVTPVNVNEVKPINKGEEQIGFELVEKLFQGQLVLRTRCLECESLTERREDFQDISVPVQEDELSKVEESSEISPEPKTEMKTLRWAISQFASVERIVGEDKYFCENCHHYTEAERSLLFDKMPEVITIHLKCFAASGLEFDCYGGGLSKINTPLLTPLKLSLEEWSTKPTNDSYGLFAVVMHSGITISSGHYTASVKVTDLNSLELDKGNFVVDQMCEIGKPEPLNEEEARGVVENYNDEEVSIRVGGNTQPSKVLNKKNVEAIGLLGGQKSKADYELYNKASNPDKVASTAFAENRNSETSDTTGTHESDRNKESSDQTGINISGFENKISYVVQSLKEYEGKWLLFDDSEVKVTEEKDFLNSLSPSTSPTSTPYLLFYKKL
# How it was run: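 Enzyme-free wells gave the negative control, while test wells held 1nM USP1/UAF1 preincubated with compound for 15 min at room temperature. Ub-Rho at 150nM final started the reaction, and fluorescence at 480/540 nm was recorded kinetically.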
# [13] = A High-Content qHTS Against Drug Library for the Identification of Small Molecules that Inhibit DYT1 Early Onset Primary Dystonia-Associated Cell Pathology (AID 1645839; calls by dose curve)
# How it was run: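 In this high-content image screen, delE TorsinA mislocalization in inducible Flp-In 293 cells is scored as %pathology, with cell count serving as the counterscreen. Compound exposure lasts 48 h under tetracycline induction in reduced-serum medium.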
# [14] = Drug repurposing screens with cells derived from glioblastoma tumor samples (AID 1345199); conditions: GBM patient neurospheres viability, ATP luminescence, 48 h; Potency: tumour line A unless noted; series mostly up to 46 µM; further: nearly all actives have a fitted effect of over 40% in size
# How it was run: as §3
# [15] = qHTS of pediatric cancer cell lines to identify multiple opportunities for drug repurposing: Confirmatory screen for TC32 cells (AID 1347118);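 further: cells exposed to compound for 48 h before the read; nearly all actives have a fitted effect of over 65% in size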
# How it was run: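 Luminescent ATP read-out (CellTiter-Glo) of metabolically active TC32 cells after 48 h exposure. Concentration-response curves came from 11-point (MIPE, 0.78 nM–46 µM) or 8-point (NPC, 0.59 nM–46 µM) primary titrations; follow-up used 11 points.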
# [16] = molecular target: Glutathione peroxidase 1 (Homo sapiens) (UniProt P07203); assay: Primary qHTS Assay for Inhibitors of Recombinant Selenoprotein Glutathione Peroxidase 1 (GPX1) (AID 1845191); conditions: activity, negative = inhibition: at 48.8 µM (top of the series); further: nearly all actives have a fitted effect of over 65% in size
# Chain of UniProt P07203 (P07203 whole entry, looked up): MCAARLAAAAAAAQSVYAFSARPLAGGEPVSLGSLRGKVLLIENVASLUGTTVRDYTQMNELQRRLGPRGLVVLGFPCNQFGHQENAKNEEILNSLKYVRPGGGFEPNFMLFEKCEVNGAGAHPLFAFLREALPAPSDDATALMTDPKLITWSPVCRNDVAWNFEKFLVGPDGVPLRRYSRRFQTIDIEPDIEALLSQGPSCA
# How it was run: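 10 nM GPX1 + cpd, 30 min RT; start w/ 1 mM GSH, 0.5 mM cumene hydroperoxide, 0.5 mM NADPH, 100 nM GR, 0.01% BSA; buffer 50 mM Tris-HCl pH 7.5, 2 mM EDTA, 150 mM NaCl; Fl 340/450, 0 & 15 min.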
# [17] = Quantitative High-Throughput drug screen in 47 multiple myeloma cell lines against the NCATS MIPE library collection: FR4_PLB cell viability assay (AID 1918924; further: nearly all actives have a fitted effect of over 35% in size)
# How it was run: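 Luminescent ATP measurement with CellTiter-Glo gives viability, scaled between DMSO-only wells (100%) and media-only wells (0%). Cells, 500 per well, faced library compounds for 48 hours at 37C.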
# Potency means the concentration at half of the fitted maximal effect; tags describe the fitted curve by direction and shape.
smiles,measurement,setting,value
CCOc1cc2ncc(C#N)c(Nc3ccc(OCc4ccccn4)c(Cl)c3)c2cc1NC(=O)/C=C/CN(C)C,Potency,[1],"inconclusive: 3.17 µM [inhibitor, full curve]"
same,Potency,[2],inactive
Cn1c(=O)n(-c2ccc(C(C)(C)C#N)cc2)c2c3cc(-c4cnc5ccccc5c4)ccc3ncc21,Potency,[3],active: 0.0743 µM
Cc1nnc(C(C)C)n1C1CC2CCC(C1)N2CC[C@H](NC(=O)C1CCC(F)(F)CC1)c1ccccc1 (stereo partly specified),Potency,[3],inactive
same,Potency,[4],"inconclusive: 21.3 µM [inhibitor, single point]"
same,Potency,[5],inactive
same,Potency,[6],"inconclusive: 2.67 µM [activator, full curve, poor fit]"
c1cc(-c2cnn3cc(-c4ccc(OCCN5CCCCC5)cc4)cnc23)ccn1,Potency,[3],"inconclusive: 29.6 µM [cytotoxic, single point]"
same,Potency,[1],active: 6.51 µM
same,Potency,[7],inactive
CCN(CCCO)CCCOc1ccc2c(Nc3cc(CC(=O)Nc4cccc(F)c4)[nH]n3)ncnc2c1,Potency,[3],inactive
same,Potency,[4],"inconclusive: 8.49 µM [inhibitor, single point]"
same,Potency,[5],"inconclusive: 26.8 µM [inhibitor, single point]"
COc1cc2c(Oc3ccc(-c4cnc(Nc5ccc(F)cc5)n(C)c4=O)cc3F)ccnc2cc1OCCCN1CCOCC1,Potency,[8],active: 18.5 µM
same,Potency,[5],inactive
same,Potency,[6],"inconclusive: 37.7 µM [activator, partial curve, poor fit]"
COc1ccc(COc2cc3oc(=O)c4cc(C(C)O)ccc4c3cc2OC)cc1 (stereo unspecified),Potency,[9],"inconclusive: 33.2 µM [activator, single point]"
same,Potency,[1],"inconclusive: 3.66 µM [inhibitor, full curve]"
COc1ccc(C=Cc2cc(OC)c(OC)c(OC)c2)cc1O,Potency,[10],"inconclusive: 0.0037 µM [cytotoxic, partial curve, poor fit]"
Nc1nc(Cl)nc2c1ncn2[C@H]1C[C@H](O)[C@@H](CO)O1,Potency,[3],"inconclusive: 0.121 µM [cytotoxic, full curve]"
same,Potency,[8],active: 0.208 µM
same,Potency,[11],inactive
same,Potency,[4],inactive
same,Potency,[5],"inconclusive: 26.8 µM [inhibitor, single point]"
same,Potency,[7],"inconclusive: 8.33 µM [cytotoxic, full curve, poor fit]"
same,Potency,astro,"inconclusive: 10 µM [inhibitor, partial curve]"
Cc1cccc(C=NNc2cc(N3CCOCC3)nc(OCCc3ccccn3)n2)c1,Potency,[3],"inconclusive: 20.9 µM [cytotoxic, partial curve, poor fit]"
COC(=O)C1=C(C)NC(C)=C(C(=O)OCCCN2CCC(c3ccccc3)(c3ccccc3)CC2)[C@H]1c1cccc([N+](=O)[O-])c1,Potency,[12],"inconclusive: 22.4 µM [inhibitor, full curve] and inconclusive: 11.2 µM [inhibitor, full curve]"
CC(C)OC(=O)C1=CN(C(=O)c2ccc(F)c(F)c2)CC(C)(C)c2c1[nH]c1ccccc21,Potency,[5],"inconclusive: 1.34 µM [inhibitor, partial curve, poor fit]"
O=C1Nc2ccc(Cl)cc2[C@@](C#CC2CC2)(C(F)(F)F)O1,Potency,[2],active: 44.7 µM
same,Potency,[13],"inconclusive: 35.5 µM [inhibitor, single point]"
same,Potency,[14],active: 17.8 µM
same,Potency,astro,"inconclusive: 12.6 µM [inhibitor, partial curve]"
Cc1[nH]c2ccccc2c1CCNCc1ccc(C=CC(=O)NO)cc1,Potency,[15],active: 0.117 µM
same,Potency,[11],active: 0.0041 µM
C=CC(=O)N1CCC[C@@H](n2nc(-c3ccc(Oc4ccccc4)cc3)c3c(N)ncnc32)C1,Potency,[8],"inconclusive: 5.22 µM [cytotoxic, partial curve]"
same,Potency,[16],"inconclusive: 25.5 µM [inhibitor, partial curve]"
O=C(NCCCNc1nc(Nc2cccc(NC(=O)N3CCCC3)c2)ncc1I)c1cccs1,Potency,[17],"inconclusive: 37.2 µM [cytotoxic, single point]"
same,Potency,[7],"inconclusive: 0.0074 µM [cytotoxic, full curve, poor fit]"
same,Potency,[10],"inconclusive: 37.2 µM [cytotoxic, single point]"
CC(C)c1ccc(Cn2ccc3c4c(N)nc(NC5CC5)nc4ccc32)cc1,Potency,[12],"inconclusive: 56.2 µM [inhibitor, partial curve, poor fit]"
same,Potency,[10],active: 10.5 µM
NC(=O)c1c(OCc2c(F)cc(Br)cc2F)nsc1NC(=O)NCCCCN1CCCC1,Potency,[4],"inconclusive: 10.7 µM [inhibitor, partial curve]"
same,Potency,[5],"active: 16.9 µM and inconclusive: 12 µM [inhibitor, partial curve, poor fit]"
same,Potency,[17],"inconclusive: 37.2 µM [cytotoxic, single point]"
same,Potency,[10],"inconclusive: 33.2 µM [cytotoxic, single point]"
